Assay results reported in a collection of fitness landscapes (doi:10.1016/j.celrep.2020.107928).
Whole data set: some 81,000 sequences, median “one-hybrid fitness for binding NBS DNA” near -0.1, cut for the highest 2% near 0.36. Some of the results follow.

B1: Caulobacter ParB omega fusion; a variant is named by its letters at X, in order, B8GW30 (parent)
chain: MESVVVGEPGMSEGRRGLGRGLSALLGEVDAAPAQAPGEQLGGSREAPIEILQRNPDQPRRTFREEDLEDLSNSIREKGVLQPILVRPSPDTAGEYQIVAGERAWRAAQRAGLKTVPIMVRELDDLAVLEIGIIENVQRADLNVLEEALSYKVLMEKFERTQENIAQTIGKSXSHVANXMRLLXLPDEVQSYLVSGELTAXHARAIAAAADPVALAKQIIEGGLSVRETEALARKAPNLSAGKSKGGRPPRVKDTDTQALESDLSSVLGLDVSIDHRGSTGTLTITYATLEQLDDLCNRLTRGI

Variants of: B1
Assay: one-hybrid fitness for binding NBS DNA (the Noc-binding site; scaled: cognate 1, non-cognate 0); higher = stronger binding
Conditions: with NBS DNA site
In short: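 Bacterial one-hybrid selection in E. coli USO rpoZ- hisB- pyrF- with a HIS3 reporter carrying the site 19 bp from the promoter, screening Caulobacter ParB libraries with four specificity codons randomised (NNS). Cells grew 48 hours at 37°C on M9-minus-histidine plus 0.1 mM IPTG and 5 mM 3-AT. Plasmids before and after selection were Illumina-sequenced, three replicate libraries pooled, and variants under 10 reads dropped. Fitness is the log change in variant-to-wild-type read ratio, rescaled to cognate 1, non-cognate 0.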

Row | Variant | one-hybrid fitness for binding NBS DNA
1 | YRRP | ≤ 0.2
2 | AAVE | ≤ 0.2
3 | NTLV | ≤ 0.2
4 | CDST | ≤ 0.2
5 | FDCR | ≤ 0.2
6 | RPRN | ≤ 0.2
7 | CRGC | ≤ 0.2
8 | WFYS | ≤ 0.2
9 | EATC | ≤ 0.2
10 | PPTM | ≤ 0.2
11 | LIHG | ≤ 0.2
12 | RHDC | ≤ 0.2
13 | ICLS | ≤ 0.2
14 | PKIM | ≤ 0.2
15 | NSDF | ≤ 0.2
16 | PWTG | ≤ 0.2
17 | TMMV | ≤ 0.2
18 | DMHT | ≤ 0.2
19 | FYCT | ≤ 0.2
20 | PAWC | ≤ 0.2
21 | THRV | ≤ 0.2
22 | LQPH | ≤ 0.2
23 | RAVR | 0.277
24 | VYTE | ≤ 0.2
25 | GLWT | ≤ 0.2
26 | RSKG | ≤ 0.2

Row | Variant | one-hybrid fitness for binding NBS DNA
27 | HTES | ≤ 0.2
28 | EHMI | ≤ 0.2
29 | RGHR | ≤ 0.2
30 | QQTK | ≤ 0.2
31 | LPEF | ≤ 0.2
32 | IRHL | ≤ 0.2
33 | AVHY | ≤ 0.2
34 | WSWG | ≤ 0.2
35 | LPPL | ≤ 0.2
36 | PNVV | ≤ 0.2
37 | DAVH | ≤ 0.2
38 | RPHQ | ≤ 0.2
39 | FAIT | ≤ 0.2
40 | NPDC | ≤ 0.2
41 | WIVG | ≤ 0.2
42 | IHRW | ≤ 0.2
43 | GMDW | ≤ 0.2
44 | RQCY | ≤ 0.2
45 | AKVL | ≤ 0.2
46 | PANI | ≤ 0.2
47 | ILSN | ≤ 0.2
48 | CQQI | ≤ 0.2
49 | RRPF | ≤ 0.2
50 | SFHT | ≤ 0.2
51 | STPK | ≤ 0.2
52 | LPMG | ≤ 0.2

Row | Variant | one-hybrid fitness for binding NBS DNA
53 | KYYL | ≤ 0.2
54 | RQNQ | ≤ 0.2
55 | RNKW | ≤ 0.2
56 | ELEG | ≤ 0.2
57 | YYKR | ≤ 0.2
58 | KKTM | ≤ 0.2
59 | KTPP | ≤ 0.2
60 | GSIT | ≤ 0.2
61 | QWKK | ≤ 0.2
62 | VVGH | ≤ 0.2
63 | QCYR | 0.606
64 | QNLF | ≤ 0.2
65 | SIKI | ≤ 0.2
66 | KPGW | ≤ 0.2
67 | PSCY | ≤ 0.2
68 | TMMN | ≤ 0.2
69 | WSRA | ≤ 0.2
70 | HFPD | ≤ 0.2
71 | PNQR | ≤ 0.2
72 | AIAA | ≤ 0.2
73 | WLAA | ≤ 0.2
74 | GYHK | ≤ 0.2
75 | ACSF | ≤ 0.2
76 | ALRK | ≤ 0.2
77 | IKPS | ≤ 0.2
78 | RWAY | ≤ 0.2

Row | Variant | one-hybrid fitness for binding NBS DNA
79 | GFTN | ≤ 0.2
80 | AMNM | ≤ 0.2
81 | VYVS | ≤ 0.2
82 | ACFS | ≤ 0.2
83 | EIDR | ≤ 0.2
84 | CPCG | ≤ 0.2
85 | ARAT | ≤ 0.2
86 | SQKW | ≤ 0.2
87 | NMLR | ≤ 0.2
88 | FGSC | ≤ 0.2
89 | CINY | ≤ 0.2
90 | MGAC | ≤ 0.2
91 | QACM | ≤ 0.2
92 | IAWL | ≤ 0.2
93 | PTLK | ≤ 0.2
94 | AMRY | ≤ 0.2
95 | QVYS | 0.202
96 | LAPR | ≤ 0.2
97 | YLRV | ≤ 0.2
98 | ILSG | ≤ 0.2
99 | EQNS | ≤ 0.2
100 | TRGA | ≤ 0.2
101 | IFWG | ≤ 0.2
102 | ALQI | ≤ 0.2
103 | DYIL | ≤ 0.2
104 | FPLG | ≤ 0.2

Row | Variant | one-hybrid fitness for binding NBS DNA
105 | EDDS | ≤ 0.2
106 | RMFE | ≤ 0.2
107 | WSVM | ≤ 0.2
108 | KSDS | ≤ 0.2
109 | KWRG | ≤ 0.2
110 | RNNC | ≤ 0.2
111 | KTTQ | ≤ 0.2
112 | LLHS | ≤ 0.2
113 | RRCE | ≤ 0.2
114 | AYRS | ≤ 0.2
115 | LPIK | ≤ 0.2
116 | LKLI | ≤ 0.2
117 | KMHT | ≤ 0.2
118 | TNRN | ≤ 0.2
119 | NFRV | ≤ 0.2
120 | VRWA | ≤ 0.2
121 | SGCL | ≤ 0.2
122 | SQHC | ≤ 0.2
123 | ANKT | ≤ 0.2
124 | ASWI | ≤ 0.2
125 | MYGG | ≤ 0.2
126 | QCLL | ≤ 0.2
127 | PRLR | ≤ 0.2
128 | LLPF | ≤ 0.2
129 | QCRN | 0.482
130 | DITG | ≤ 0.2

Row | Variant | one-hybrid fitness for binding NBS DNA
131 | VVMN | ≤ 0.2
132 | RFDF | ≤ 0.2
133 | MELT | ≤ 0.2
134 | PHWT | ≤ 0.2
135 | KPMR | ≤ 0.2
136 | HHPV | ≤ 0.2
137 | PHFN | ≤ 0.2
138 | QHGM | ≤ 0.2
139 | QVAN | ≤ 0.2
140 | LKTC | ≤ 0.2
141 | RGIY | ≤ 0.2
142 | RFSI | ≤ 0.2
143 | QQIV | ≤ 0.2
144 | RNWF | ≤ 0.2
145 | AGRG | ≤ 0.2
146 | ERKT | 0.248
147 | VMPF | ≤ 0.2
148 | VYYA | ≤ 0.2
149 | EGTE | ≤ 0.2
150 | ARFG | ≤ 0.2
151 | FHPT | ≤ 0.2
152 | PLMT | ≤ 0.2
153 | TYRH | ≤ 0.2
